From PubChem BioAssay AID686971 (National Center for Advancing Translational Sciences (NCATS), 2013)
In all, about 360,000 compounds went through this assay and about 7,500 (2.1%) were called active. The shares of active, inactive and inconclusive entries below differ from those in the screen. The call rests on the fitted dose curve; in most records, active means well fitted cell-killing curve with a large enough effect; inconclusive means small, poorly fitted or top-dose-only effect, or effect the other way, or another doubt; inactive means no such curve, though single readings can be large or run the other way. No potency is given beside an inconclusive call; the fits are too rough.
Potency means the concentration at half of the fitted maximal effect; tags describe the fitted curve by direction and shape.

Experiment: qHTS for induction of synthetic lethality in tumor cells producing 2HG: qHTS for the HT-1080-IDH1KD cell line;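 on activity, negative = toxicity: 0% = DMSO wells and -100% = cell-free medium wells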
Conditions: HT-1080 IDH1 knockdown viability, ATP luminescence, 48 h; activity, negative = toxicity: at 46.1 µM (top of the series) unless noted
In short: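 After a 2 h attachment period, IDH1KD HT-1080 cells took pin-transferred compound for 48 h at 37 °C; ATP-based luminescence after 10 min room-temperature reagent incubation reported viability.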
For `COc1ccc(N2CCc3c(C)nc4c(OC)cccc4c32)cc1`, the Potency was active: 3.26 µM. In the case of `CC(C)CCn1c(N)c(S(=O)(=O)c2cccs2)c2nc3ccccc3nc21`, the Potency is reported as inconclusive [cytotoxic, single point]. For `O=C(CN1C(=O)c2ccccc2S1(=O)=O)NCc1c(F)cccc1F`, the Potency was “inactive”. With `O=C1C(Cl)=C(NC(=O)c2ccccc2)C(=O)C(Cl)=C1NC(=O)c1ccccc1` the Potency was active: 8.2 µM. With `CC1CCN(c2nc3ccccc3nc2C(C#N)C(=O)OC2CCCCC2)CC1` (stereo not given) the Potency was “inactive”. With `Cc1cc(CN2CCCC(C(=O)Nc3cccc(-n4cccn4)c3)C2)cc(C)c1O` (stereo not given) the Potency was inconclusive [cytotoxic, single point]. For `Cc1oc2c(C)c3oc(=O)c4c(c3cc2c1C)CCCC4`, the Potency was inconclusive [cytotoxic, single point]. With `O=C(NCc1csc(-c2cccs2)n1)c1cccc(Cl)c1` the Potency was “inactive”. With `Cc1ccnc(N2CCC(C(=O)Nc3cccc(C(F)(F)F)c3)CC2)n1` the Potency was “inactive”. In the case of `COC(=O)c1c(C(=O)OC)c(-c2ccc(Cl)c(Cl)c2)n2c1CCC2`, the Potency is reported as “inactive”. With `O=C(CCc1ccccc1)NCC(c1ccco1)N1CCc2ccccc21` (stereo not given) the Potency was active: 5.17 µM. With `CCCCNC(=O)C1C(c2ccccc2)=Nc2ccccc2N1C(=O)c1ccc(C)cc1` (stereo not given) the Potency was inconclusive [cytotoxic, partial curve]. With `Oc1c(Cl)cc(Cl)cc1/C=N/NC(=S)NC1CC2C=CC1C2` (stereo not given) the Potency was active: 20.6 µM. For `COC(=O)C1CCN(C(=O)COC(=O)CC(NC(N)=O)c2ccc(Cl)cc2)CC1` (stereo not given), the Potency was “inactive”. With `CCCc1sc(N/N=C/c2ccccn2)nc1-c1ccc(Br)cc1` the Potency was active: 2.82 µM. In the case of `C/C(CC(=O)Nc1ccc(Br)cc1)=N\NC(=O)Cc1csc(N)n1`, the Potency is reported as inconclusive [cytotoxic, partial curve]. For `Cc1csc(SCC(=O)c2cc(C)n(Cc3cccs3)c2C)n1`, the Potency was inconclusive [cytotoxic, single point]. In the case of `O=C(Nc1cccc(F)c1)Nc1ccc2c(c1)OCO2`, the Potency is reported as “inactive”. In the case of `Cc1ccc(C(=O)N(Cc2nc3ccccc3c(=O)[nH]2)C2CCCC2)cc1`, the Potency is reported as inconclusive [cytotoxic, partial curve]. In the case of `CCOC(=O)c1c(C)[nH]c(C(=O)N2CCc3cc(OC)c(OC)cc3C2)c1C`, the Potency is reported as inconclusive [cytotoxic, partial curve]. For `CCOC(=O)C(=O)NNc1ccc(F)cc1`, the Potency was active: 8.2 µM. In the case of `CSc1nsc(SCC(=O)Nc2nncs2)n1`, the Potency is reported as inconclusive [rising, partial curve, poor fit]. In the case of `CCSCCc1nnc(NC(=O)Nc2cccc(C(F)(F)F)c2)s1`, the Potency is reported as inconclusive [cytotoxic, single point]. With `CCOC(=O)N1CCC(NC(=O)CSCc2nc(-c3ccc(OCC)cc3)oc2C)CC1` the Potency was “inactive”. In the case of `CC(C)C[C@H]1CN([C@@H](Cc2ccccc2)CN2CCC[C@H]2CN2C(=O)C(=O)NC[C@@H]2Cc2ccc(O)cc2)C(=O)C(=O)N1CCc1ccccc1`, the Potency is reported as inconclusive [cytotoxic, single point]. For `CCOc1cc(/C=N\NC(=O)c2ccc(C)nc2)ccc1OC(=O)c1ccc(F)cc1`, the Potency was “inactive”. For `O=C(Nc1ccc(F)cc1)c1nc(S(=O)(=O)Cc2ccccc2)ncc1Cl`, the Potency was active: 14.6 µM. With `O=C(Nc1cc(-c2ccccc2)[nH]n1)c1ccccc1` the Potency was inconclusive [cytotoxic, partial curve]. In the case of `Cc1cccc(Cn2c(=O)n(CCCC(=O)NCc3ccco3)c(=O)c3ccccc32)c1`, the Potency is reported as inconclusive [cytotoxic, single point]. With `CCn1c(SCC(=O)N2CCOCC2)nc2sc3c(c2c1=O)CCCC3` the Potency was “inactive”. For `O=C(Nc1ccc2c(c1)CCCN2C(=O)c1ccccc1)c1ccccc1`, the Potency was inconclusive [cytotoxic, single point]. For `CS(=O)(=O)c1ccc(Cl)c(NC(=O)CCN2C(=O)C3CC=CCC3C2=O)c1` (stereo not given), the Potency was “inactive”. With `CCOC(=O)C1=C(c2ccccc2)NC(SCC(=O)Nc2cccc(C)c2)=C(C#N)C1c1ccco1` (stereo not given) the Potency was inconclusive [cytotoxic, single point]. In the case of `Cc1ccc(/C=N/Nc2cc(C)nc(NCc3ccccc3)n2)cc1`, the Potency is reported as inconclusive [cytotoxic, single point]. In the case of `Cc1ccc(NC(=O)CC2=NC(=O)C(CC(=O)Nc3ccccc3C)S2)cc1` (stereo not given), the Potency is reported as inconclusive [cytotoxic, partial curve]. For `O=C1NC[C@H](Cc2ccc(O)cc2)N(C[C@@H]2CCCN2C[C@H](Cc2ccccc2)N2C[C@H](Cc3ccccc3)N(CC3CCCCCC3)C(=O)C2=O)C1=O`, the Potency was inconclusive [cytotoxic, single point]. With `COc1ccccc1-c1cc(C(=O)N/N=C/c2cccs2)c2ccccc2n1` the Potency was inconclusive [cytotoxic, partial curve]. In the case of `CC(C)(C)n1nnnc1C(c1ccc(Cl)cc1)N(Cc1cccnc1)Cc1ccco1` (stereo not given), the Potency is reported as inconclusive [cytotoxic, single point]. With `CCOc1ccc2nc(NS(=O)(=O)Cc3ccccc3)sc2c1` the Potency was active: 6.51 µM. For `CCc1nnc(NC(=O)c2ccc(S(=O)(=O)NC3CCCCC3)cc2)s1`, the Potency was inconclusive [cytotoxic, single point]. In the case of `CC(=O)c1cccc(NC(=O)CSc2ccc(-c3ccc4c(c3)OCO4)nn2)c1`, the Potency is reported as “inactive”. For `C=CC(C)(C)c1c(O)c(CC=C(C)C)c(O)c2c(=O)c3ccc(O)c(O)c3oc12`, the Potency was active: 14.6 µM. In the case of `Cc1ccc(C2(C)CC(C)(C)N(C(=O)CSc3nnc(C)s3)c3ccccc32)cc1` (stereo not given), the Potency is reported as inconclusive [cytotoxic, single point]. For `COc1ccc(OCc2nc3ccccc3n2C(C)C)cc1`, the activity, negative = toxicity was inconclusive: -38.3% [cytotoxic]. For `Cn1ccc2c(-c3ccc(CO)cc3)cc3c(c21)C1CCC3C1` (stereo not given), the Potency was inconclusive [cytotoxic, single point]. For `O=c1c2ccccc2nc(/C=C/c2cc(Br)ccc2O)n1CCCO`, the Potency was inconclusive [cytotoxic, single point]. In the case of `CCCCNC(=O)C(=O)Nc1ccc2c(c1)N(S(=O)(=O)c1cccs1)CCC2`, the Potency is reported as active: 8.2 µM. In the case of `OC[C@@H]1CN(Cc2ccc(Cl)cc2)C[C@H](n2cnc3c(Nc4ccccc4)ncnc32)O1`, the Potency is reported as inconclusive [cytotoxic, single point]. With `Oc1ccc(N=Nc2ccccc2)o1` the Potency was active: 23.1 µM. With `Cc1cc(Nc2nnnn2-c2ccccc2)n(-c2ccc(Cl)cc2)n1` the Potency was inconclusive [cytotoxic, single point]. In the case of `CCOc1cc(/C=C2\C(=O)ON=C2c2ccccc2)cc(Br)c1O`, the Potency is reported as inconclusive [cytotoxic, single point]. For `O=C(Cn1cnc2c(nnn2Cc2ccc(F)cc2)c1=O)NCc1ccccc1`, the Potency was inconclusive [cytotoxic, single point]. With `COc1ccc([C@H]2CC(=O)C=C(c3cc(C)ccc3OC)C2)cc1` the Potency was inconclusive [cytotoxic, single point]. With `Cc1ccc(C(=O)Nc2ccc(-c3csc(C)n3)cc2)cc1` the Potency was inconclusive [cytotoxic, single point]. For `O=C(NC(C(=O)c1ccccc1)N1CCOCC1)c1cccs1` (stereo not given), the Potency was inconclusive [cytotoxic, single point]. With `Cc1[nH]nc(-c2ccc(OCc3cnn(-c4ccccc4)c3)c(C)c2O)c1Oc1ccccc1` the Potency was active: 16.4 µM. In the case of `O=C(NN=C1CCCC1)c1[nH]c2ccc(Br)cc2c1-c1ccccc1`, the Potency is reported as active: 5.8 µM. For `O=C(NC(=S)NNC(=O)c1cnccn1)c1ccc(F)cc1`, the Potency was inconclusive [cytotoxic, partial curve]. For `O=C(C[n+]1ccccc1)Nc1ccccc1[N+](=O)[O-]`, the Potency was “inactive”. For `N#C/C(=C\c1ccc(-c2ccc(C(=O)O)cc2)o1)C(=O)NCC1CCCO1` (stereo not given), the Potency was “inactive”. For `COc1cccc(C(=O)Nc2sc3c(c2C#N)CCN(C(C)=O)C3)c1`, the Potency was active: 2.91 µM. With `CCCn1c(N2CCN(CC(=O)c3c(C)n(C)c4ccc(OC)cc34)CC2)nc2c1c(=O)[nH]c(=O)n2C` the Potency was inconclusive [cytotoxic, single point]. For `COc1ccc(NC(=O)CCC(=O)Nc2nnc(CC(C)C)s2)cc1Cl`, the Potency was inconclusive [rising, single point]. In the case of `CCOC(=O)[C@]12CCC=C1N(Cc1ccc(Cl)cc1Cl)C(=O)[C@H](CC(=O)NCCC(C)C)C2`, the Potency is reported as inconclusive [cytotoxic, single point]. With `CC(C)C[C@H]1CNC(=O)C(=O)N1C[C@H]1CCCN1C[C@H](Cc1ccc(O)cc1)N1C[C@H](CC(C)C)N(CC2CCCCCC2)C(=O)C1=O` the Potency was inconclusive [cytotoxic, single point]. With `O=C(NCC(F)(F)F)Nc1ccccn1` the Potency was “inactive”. For `COc1ccc(NC(=O)c2cc(-c3cc(Cl)ccc3C)n[nH]2)cn1`, the Potency was inconclusive [cytotoxic, single point]. With `C/C(=N\Nc1nc2c(s1)CCCC2)c1ccccc1` the Potency was inconclusive [cytotoxic, single point]. With `O=C(NCc1ccco1)c1cc(-c2ccc3c(c2)OCO3)on1` the Potency was inconclusive [cytotoxic, single point]. For `OC(c1ccc(CN2CCCCC2)cc1)c1ncc(-c2ccccc2)[nH]1` (stereo not given), the Potency was inconclusive [cytotoxic, single point].
